# Some of the results follow.
# What was measured:
# Experiment in all cases: glycan array binding signal (z-score within array); higher = stronger binding
# Details in all cases: glycan notation: IUPAC condensed, linker removed
# [1] = molecular target: Neu(a2-3)Gal(b1-4)GlcNAc(b1-3)Gal(b1-4)[Fuc(a1-3)]GlcNAc(b1-3)Gal(b1-4)Glc
# Method in brief: (§1)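 Arrays were curated from the Consortium for Functional Glycomics database, 3228 in total, and kept only where the protein sequence was available. Binding is expressed as a within-array Z-score. This score was averaged across arrays of the same protein sequence at different concentrations or buffers and across linkers, and negative values can be read as non-binding.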
# [2] = molecular target: Neu(a2-3)Gal(b1-4)GlcNAc6S(b1-3)Gal(b1-4)Glc
# Method in brief: as §1
# [3] = molecular target: Neu(a2-3)Gal(b1-4)[Fuc(a1-3)]GlcNAc(b1-3)Gal(b1-4)Glc
# Method in brief: as §1
# [4] = molecular target: Neu(a2-3)Gal(b1-4)[Fuc(a1-3)]GlcNAc6S(b1-3)Gal(b1-4)Glc
# Method in brief: as §1
# [5] = molecular target: Neu(a2-3)Gal6S(b1-4)[Fuc(a1-3)]GlcN(b1-3)Gal(b1-4)Glc
# Method in brief: as §1
# [6] = molecular target: Neu(a2-6)Gal(b1-4)Glc
# Method in brief: as §1
# [7] = molecular target: Neu4Ac5Ac(a2-3)Gal(b1-4)Glc
# Method in brief: as §1
# [8] = molecular target: Neu4Me5Ac(a2-3)Gal(b1-4)Glc
# Method in brief: as §1
# [9] = molecular target: Neu5Ac(a2-2)Glc
# Method in brief: as §1
# [10] = molecular target: Neu5Ac(a2-3)4dGal(b1-4)[Fuc(a1-3)]GlcNAc(b1-3)Gal
# Method in brief: as §1
# [11] = molecular target: Neu5Ac(a2-3)6dGal(b1-4)[Fuc(a1-3)]GlcNAc(b1-3)Gal
# Method in brief: as §1
# [12] = molecular target: Neu5Ac(a2-3)Gal
# Method in brief: as §1
# [13] = molecular target: Neu5Ac(a2-3)Gal(b1-3)6dGalNAc
# Method in brief: as §1
# [14] = molecular target: Neu5Ac(a2-3)Gal(b1-3)GalNAc
# Method in brief: as §1
# [15] = molecular target: Neu5Ac(a2-3)Gal(b1-3)GalNAc(b1-3)Gal(a1-4)Gal(b1-4)Glc
# Method in brief: as §1
# [16] = molecular target: Neu5Ac(a2-3)Gal(b1-3)GalNAc(b1-3)Gal(b1-4)GlcNAc
# Method in brief: as §1
# [17] = molecular target: Neu5Ac(a2-3)Gal(b1-3)GalNAc(b1-4)Gal(b1-4)Glc
# Method in brief: as §1
# [18] = molecular target: Neu5Ac(a2-3)Gal(b1-3)GalNAc(b1-4)[Neu5Ac(a2-3)]Gal(b1-4)Glc
# Method in brief: as §1
# [19] = molecular target: Neu5Ac(a2-3)Gal(b1-3)GalNAc(b1-4)[Neu5Ac(a2-8)Neu5Ac(a2-3)]Gal(b1-4)Glc
# Method in brief: as §1
# [20] = molecular target: Neu5Ac(a2-3)Gal(b1-3)GalNAc6S
# Method in brief: as §1
# [21] = molecular target: Neu5Ac(a2-3)Gal(b1-3)GalNAc6S(b1-4)Gal(b1-4)Glc
# Method in brief: as §1
# [22] = molecular target: Neu5Ac(a2-3)Gal(b1-3)GlcNAc
# Method in brief: as §1
# [23] = molecular target: Neu5Ac(a2-3)Gal(b1-3)GlcNAc(b1-2)Man
# Method in brief: as §1
# [24] = molecular target: Neu5Ac(a2-3)Gal(b1-3)GlcNAc(b1-2)Man(a1-3)[GlcNAc(b1-4)][Neu5Ac(a2-3)Gal(b1-3)GlcNAc(b1-2)Man(a1-6)]Man(b1-4)GlcNAc(b1-4)GlcNAc
# Method in brief: as §1
# [25] = molecular target: Neu5Ac(a2-3)Gal(b1-3)GlcNAc(b1-2)Man(a1-3)[Neu5Ac(a2-3)Gal(b1-3)GlcNAc(b1-2)Man(a1-6)]Man(b1-4)GlcNAc(b1-4)GlcNAc
# Method in brief: as §1
# [26] = molecular target: Neu5Ac(a2-3)Gal(b1-3)GlcNAc(b1-3)Gal(b1-3)GlcNAc
# Method in brief: as §1
# [27] = molecular target: Neu5Ac(a2-3)Gal(b1-3)GlcNAc(b1-3)Gal(b1-4)Glc
# Method in brief: as §1
# [28] = molecular target: Neu5Ac(a2-3)Gal(b1-3)GlcNAc(b1-3)Gal(b1-4)GlcNAc
# Method in brief: as §1
# [29] = molecular target: Neu5Ac(a2-3)Gal(b1-3)GlcNAc(b1-3)GalNAc
# Method in brief: as §1
# [30] = molecular target: Neu5Ac(a2-3)Gal(b1-3)GlcNAc(b1-3)[Fuc(a1-3)[Gal(b1-4)]GlcNAc(b1-6)]Gal(b1-4)Glc
# Method in brief: as §1
# [31] = molecular target: Neu5Ac(a2-3)Gal(b1-3)GlcNAc(b1-4)Gal(b1-4)Glc
# Method in brief: as §1
# [32] = molecular target: Neu5Ac(a2-3)Gal(b1-3)GlcNAc(b1-6)GalNAc
# Method in brief: as §1
# [33] = molecular target: Neu5Ac(a2-3)Gal(b1-3)GlcNAc6S
# Method in brief: as §1
# [34] = molecular target: Neu5Ac(a2-3)Gal(b1-3)[Fuc(a1-3)]GlcN(b1-3)Gal(b1-4)Glc
# Method in brief: as §1
# [35] = molecular target: Neu5Ac(a2-3)Gal(b1-3)[Fuc(a1-4)]GlcNAc
# Method in brief: as §1
# [36] = molecular target: Neu5Ac(a2-3)Gal(b1-3)[Fuc(a1-4)]GlcNAc(b1-3)Gal(b1-3)[Fuc(a1-4)]GlcNAc
# Method in brief: as §1
# [37] = molecular target: Neu5Ac(a2-3)Gal(b1-3)[Fuc(a1-4)]GlcNAc(b1-3)Gal(b1-4)Glc
# Method in brief: as §1
# [38] = molecular target: Neu5Ac(a2-3)Gal(b1-3)[Fuc(a1-4)]GlcNAc(b1-3)Gal(b1-4)[Fuc(a1-3)]GlcNAc
# Method in brief: as §1
# [39] = molecular target: Neu5Ac(a2-3)Gal(b1-3)[GlcNAc(b1-6)]GalNAc
# Method in brief: as §1
# [40] = molecular target: Neu5Ac(a2-3)Gal(b1-3)[Neu5Ac(a2-3)Gal(b1-4)]GlcNAc
# Method in brief: as §1
# [41] = molecular target: Neu5Ac(a2-3)Gal(b1-3)[Neu5Ac(a2-6)]GalNAc
# Method in brief: as §1
# [42] = molecular target: Neu5Ac(a2-3)Gal(b1-3)[Neu5Ac(a2-6)]GalNAc(b1-4)Gal(b1-4)Glc
# Method in brief: as §1
# [43] = molecular target: Neu5Ac(a2-3)Gal(b1-3)[Neu5Ac(a2-6)]GlcNAc(b1-3)Gal(b1-4)Glc
# Method in brief: as §1
# [44] = molecular target: Neu5Ac(a2-3)Gal(b1-3)[Neu5Ac(a2-6)]GlcNAc(b1-3)[Fuc(a1-3)[Gal(b1-4)]GlcNAc(b1-6)]Gal(b1-4)Glc
# Method in brief: as §1
# [45] = molecular target: Neu5Ac(a2-3)Gal(b1-3)]Neu5Ac(a2-3)Gal(b1-4)]GlcNAc
# Method in brief: as §1
binder,measurement,setting,value
"CLEC5A (Homo sapiens), Q9NY25 (protein) MNWHMIISGLIVVVLKVVGMTLFLLYFPQIFNKSNDGFTTTRSYGTVSQIFGSSSPSPNGFITTRSYGTVCPKDWEFYQARCFFLSTSESSWNESRDFCKGKGSTLAIVNTPEKLKFLQDITDAEKYFIGLIYHREEKRWRWINNSVFNGNVTNQNQNFNCATIGLTKTFDAASCDISYRRICEKNAK",glycan array binding signal (z-score),[1],-0.32
same,glycan array binding signal (z-score),[2],-0.32
same,glycan array binding signal (z-score),[3],-0.32
same,glycan array binding signal (z-score),[4],-0.32
same,glycan array binding signal (z-score),[5],-0.224
same,glycan array binding signal (z-score),[6],0.017
same,glycan array binding signal (z-score),[7],-0.32
same,glycan array binding signal (z-score),[8],-0.32
same,glycan array binding signal (z-score),[9],-0.32
same,glycan array binding signal (z-score),[10],-0.127
same,glycan array binding signal (z-score),[11],-0.127
same,glycan array binding signal (z-score),[12],-0.314
same,glycan array binding signal (z-score),[13],-0.32
same,glycan array binding signal (z-score),[14],0.232
same,glycan array binding signal (z-score),[15],-0.18
same,glycan array binding signal (z-score),[16],-0.262
same,glycan array binding signal (z-score),[17],-0.32
same,glycan array binding signal (z-score),[18],-0.297
same,glycan array binding signal (z-score),[19],0.362
same,glycan array binding signal (z-score),[20],-0.212
same,glycan array binding signal (z-score),[21],-0.32
same,glycan array binding signal (z-score),[22],-0.254
same,glycan array binding signal (z-score),[23],-0.241
same,glycan array binding signal (z-score),[24],-0.199
same,glycan array binding signal (z-score),[25],-0.428
same,glycan array binding signal (z-score),[26],-0.098
same,glycan array binding signal (z-score),[27],-0.175
same,glycan array binding signal (z-score),[28],0.002
same,glycan array binding signal (z-score),[29],-0.151
same,glycan array binding signal (z-score),[30],-0.32
same,glycan array binding signal (z-score),[31],-0.012
same,glycan array binding signal (z-score),[32],-0.188
same,glycan array binding signal (z-score),[33],0.026
same,glycan array binding signal (z-score),[34],-0.224
same,glycan array binding signal (z-score),[35],-0.242
same,glycan array binding signal (z-score),[36],-0.257
same,glycan array binding signal (z-score),[37],-0.224
same,glycan array binding signal (z-score),[38],0.08
same,glycan array binding signal (z-score),[39],-0.229
same,glycan array binding signal (z-score),[40],-0.111
same,glycan array binding signal (z-score),[41],-0.013
same,glycan array binding signal (z-score),[42],-0.32
same,glycan array binding signal (z-score),[43],0.258
same,glycan array binding signal (z-score),[44],-0.258
same,glycan array binding signal (z-score),[45],-0.189

# Reference: the supplement of paper PMC8728848
